Reference: PubChem BioAssay AID485360 (National Center for Advancing Translational Sciences (NCATS), 2010)
The campaign covered roughly 230,000 compounds. About 1,500 (0.65%) were called active. Inconclusive results, whose numbers are uncertain, are shown with a selection of clear calls. The call rests on the fitted dose curve; in most records, active means well fitted inhibition curve with a large enough effect; inconclusive means small, poorly fitted or top-dose-only effect; inactive means no such curve, though single readings can be large or run the other way. A potency beside an inconclusive call is a rough fit, not a confirmed value.

target: Lethal(3)malignant brain tumor-like protein 1 (Homo sapiens) (UniProt Q9Y468); test: qHTS Assay for the Inhibitors of L3MBTL1; conditions: AlphaScreen L3MBTL1–H3K9me1 peptide binding; activity, negative = inhibition: at 57.1 µM (top of the series); further: nearly all actives have a fitted effect of over 60% in size
Sequence of UniProt Q9Y468 (Q9Y468 whole entry, looked up): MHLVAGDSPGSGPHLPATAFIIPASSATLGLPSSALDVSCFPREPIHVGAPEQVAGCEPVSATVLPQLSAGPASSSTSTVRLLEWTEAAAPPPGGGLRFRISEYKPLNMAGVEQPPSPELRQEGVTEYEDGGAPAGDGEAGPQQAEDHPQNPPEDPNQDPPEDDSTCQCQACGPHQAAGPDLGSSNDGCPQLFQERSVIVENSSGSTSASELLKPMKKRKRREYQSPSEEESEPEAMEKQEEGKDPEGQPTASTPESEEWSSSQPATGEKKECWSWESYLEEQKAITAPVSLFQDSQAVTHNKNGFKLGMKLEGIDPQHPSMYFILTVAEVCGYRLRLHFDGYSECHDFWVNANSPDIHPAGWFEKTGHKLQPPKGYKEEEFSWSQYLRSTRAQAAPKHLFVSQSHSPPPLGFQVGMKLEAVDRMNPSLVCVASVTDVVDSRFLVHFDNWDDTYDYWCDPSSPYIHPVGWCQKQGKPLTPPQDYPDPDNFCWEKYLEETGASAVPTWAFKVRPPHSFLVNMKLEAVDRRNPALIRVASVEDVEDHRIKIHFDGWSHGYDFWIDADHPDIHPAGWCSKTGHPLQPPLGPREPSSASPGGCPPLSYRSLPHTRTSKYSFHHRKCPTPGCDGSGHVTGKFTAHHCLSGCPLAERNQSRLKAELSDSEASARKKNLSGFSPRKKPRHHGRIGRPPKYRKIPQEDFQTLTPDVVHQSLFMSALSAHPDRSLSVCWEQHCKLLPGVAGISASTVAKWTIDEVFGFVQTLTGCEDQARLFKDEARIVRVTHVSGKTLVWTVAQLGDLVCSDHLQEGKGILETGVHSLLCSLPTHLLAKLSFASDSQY
Outline: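 AlphaScreen assay: L3MBTL1 (50 nM final) was preincubated 30 min at room temperature with biotinylated H3(1-15)K9me1 peptide (75 nM final), then 30 min with library compounds; streptavidin donor and nickel chelate acceptor beads (10 ug/mL final) added, 30 min dark.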
On the % scale 0 is the no-effect control and ±100 the full control effect; potency means the concentration at half of the fitted maximal effect; tags describe the fitted curve by direction and shape.

SMILES | activity, negative = inhibition | Potency
COC(=O)c1ccc(-c2noc(CN3CCCCC3c3nccn3C)n2)cc1 (configuration not stated) | inactive: -7.84% | 
O=C(COC(=O)CCC(=O)c1cccs1)NCc1ccco1 |  | inconclusive: 31.6 µM [inhibitor, single point]
CCS(=O)(=O)N1CCN(S(=O)(=O)c2ccc3ccccc3c2)CC1 | inactive: 0.577% | 
CS(=O)(=O)c1ccc(C(=O)Nc2nc(-c3ccco3)c(-c3ccco3)s2)cc1 |  | active: 7.08 µM
CCN(C(=O)COC(=O)c1ccc(SC)cc1OC)C1CCS(=O)(=O)C1 (configuration not stated) | inactive: 0.0503% | 
O=C(NCc1ccco1)C1CCN(C(=O)c2cc3sccc3n2Cc2ccc(F)cc2)CC1 |  | inconclusive: 35.5 µM [inhibitor, single point]
Cc1ccc(C(=O)CSc2nc(N)cc(=O)[nH]2)cc1C | inactive: -5.4% | 
C#CCOCCOCCOCCNc1nc(N2CCN(C(=O)[C@H](CCCCN)n3cc(C(N)CC(C)C)nn3)CC2)nc(N2CCN(C(=O)[C@H](CCC(=O)O)n3cc(C(N)[C@H](C)CC)nn3)CC2)n1 (some centres not stated) |  | inconclusive: 0.794 µM [inhibitor, single point]
CC(C)(C)c1ccc(C(=O)c2c[nH]c(C(=O)NCCCn3ccnc3)c2)cc1 |  | inconclusive: 44.7 µM [inhibitor, single point]
O=C1NC(=O)C(Cc2ccccc2)(c2cccnc2)N1 (configuration not stated) | inactive: 18.4% | 
CCCSc1n[nH]c(NC(C)=O)n1 | inactive: -1.59% | 
Cc1ccc(Nc2nc(NCCCN3CCOCC3)nc(N)c2[N+](=O)[O-])cc1C |  | inconclusive: 31.6 µM [inhibitor, partial curve]
N#CC1=C(N)NC(=S)C(C(N)=O)C1c1ccc([N+](=O)[O-])cc1 (configuration not stated) | inactive: -4.82% | 
O=C(Nc1nnc(-c2ccco2)o1)C1CCCCC1 |  | inconclusive: 25.1 µM [inhibitor, single point]
Cc1ccccc1NC(=O)c1ccc(CN2CCc3ccccc3C2)cc1 |  | inconclusive: 4.47 µM [inhibitor, single point]
CC(C)c1ccc(/C=C(\c2nc3ccccc3[nH]2)S(=O)(=O)c2ccccc2)cc1 | inactive: -16.7% | 
Cc1c(C(=O)NNC(=S)Nc2cccc(Cl)c2)nnn1-c1ccccc1 |  | inconclusive: 39.8 µM [inhibitor, single point]
Cc1[nH]c2ccccc2c1N=Nc1ccccc1C(=O)O |  | inconclusive: 25.1 µM [inhibitor, single point]
Cc1[nH]c2ccccc2c1C(=O)CN1C(=O)C(=O)N(Cc2ccco2)C1=O |  | inconclusive: 25.1 µM [inhibitor, partial curve, poor fit]
CCOc1ccc(C(=O)N/N=C(\c2ccccc2)c2ccccn2)cc1 | inactive: -11.7% | 
CC(C)OC(=O)CSc1nnc(-c2ccccn2)n1N |  | inconclusive: 35.5 µM [inhibitor, single point]
C=CCSc1nnc2n(-c3ccccc3OC)c(=O)c3c4c(sc3n12)CCC4 |  | inconclusive: 4.47 µM [inhibitor, single point]
COc1ccc(NC(=O)/C(C#N)=C/c2ccc(-c3ccccc3C(=O)O)o2)cc1 | inactive: 3.54% | 
Cc1cc(NC(=O)Cc2cccs2)no1 |  | active: 28.2 µM

SMILES | activity, negative = inhibition | Potency
CCCCCCC(=O)NC(Nc1ccc(S(N)(=O)=O)cc1)C(Cl)(Cl)Cl (configuration not stated) | inactive: 2.75% | 
C=CCN1C(=O)C2(c3ccccc31)C1CCCC=C1C(C#N)=C(N)C2(C#N)C#N (configuration not stated) |  | inconclusive: 3.55 µM [inhibitor, partial curve]
Cc1ccccc1NC(=O)CSC(=O)c1ccccc1 | inactive: -7.88% | 
O=C(COC(=O)c1ccc([N+](=O)[O-])s1)Nc1cccc(S(=O)(=O)NC2=NCCCCC2)c1 |  | inconclusive: 8.91 µM [inhibitor, partial curve]
O=C1/C(=C/c2cccs2)SC(=S)N1NS(=O)(=O)c1ccccc1 | inactive: -13.5% | 
CC(OC(=O)Cc1n[nH]c(=O)c2ccccc12)C(=O)Nc1cccc([N+](=O)[O-])c1 (configuration not stated) |  | inconclusive: 0.631 µM [inhibitor, single point]
CCOC(=O)Cc1cc(=O)n2[nH]c(-c3ccccc3)c(-c3ccccc3)c2n1 | inactive: 7.34% [at 11.4 µM] | 
Nc1ccc(Nc2ccccc2)cc1 |  | inconclusive: 31.6 µM [inhibitor, single point]
CC(=O)Oc1oc(-c2ccccc2)nc1/C=N/c1ccccn1 | inactive: -4.11% | 
CCCN1C(=O)/C(=C/c2ccc(N3CCCC3)c(C)c2)NC1=S |  | inconclusive: 25.1 µM [inhibitor, single point]
COc1cccc(/C=N/NC(=O)C(=O)N/N=C/c2cccc(OC)c2O)c1O |  | inconclusive: 0.398 µM [inhibitor, full curve]
Cc1cc(O)c(/C=N/c2ccccn2)c(=O)o1 |  | inconclusive: 31.6 µM [inhibitor, single point]
Oc1c(I)cc(Cl)c2cccnc12 | inconclusive: -41.3% [inhibitor] | 
O=C(O)c1cccc(Nc2nc(-c3cccnc3)nc3ccccc23)c1 |  | inconclusive: 39.8 µM [inhibitor, single point]
COC1=C(Nc2ccc(C)cc2)C(=O)c2ccccc2C1=O |  | active: 15.8 µM
O=C(Nc1nc(-c2ccco2)c(-c2ccco2)s1)c1c(F)cccc1Cl |  | inconclusive: 39.8 µM [inhibitor, single point]
O=C1C(C=NCc2ccccn2)=C(O)c2ccccc21 |  | inconclusive: 28.2 µM [inhibitor, single point]
O=C(CCS(=O)(=O)c1ccc(Br)cc1)Nc1ccc(Br)cc1F |  | inconclusive: 25.1 µM [inhibitor, single point]
COCCCNC(=S)N/N=C/c1ccc(O)cc1O |  | inconclusive: 39.8 µM [inhibitor, single point]
Cc1cc(OCc2nc3ccccc3s2)ccc1N |  | inconclusive: 25.1 µM [inhibitor, partial curve]
O=C(/C=C/c1ccc([N+](=O)[O-])s1)N1CCCC1 |  | inconclusive: 0.1 µM [inhibitor, full curve, poor fit]
Cc1ccc(S(=O)(=O)N2c3ccccc3NC(=O)CC2C)cc1 (configuration not stated) | inactive: 3.38% | 
Cc1nc2c(O)cccc2cc1CO | inactive: -7.83% | 
